# The list shows a part of the results.
# System: PfSIP2 AP2 domain 1 (GST-tagged)
# Assay: gcPBM binding intensity (ln(normalized median fluorescence intensity)); higher = stronger DNA binding
# Outline: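 GST-tagged P. falciparum DNA-binding domains, expressed in E. coli (about 25 μg on average), were applied for 1 h to an Agilent 4 × 180k array of primer-extended double-stranded 36-bp intergenic genomic probes plus negative controls. The binding buffer was 1× PBS with 1% milk, 0.2 mg/ml BSA, 0.5% salmon testes DNA and 0.03% Triton X-100. Bound protein was detected with Alexa488 anti-GST antibody and scanned at 488 nm. Binding intensity is the highest Masliner-normalised natural-log median intensity across replicate spots of either probe orientation.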
row,Sequence,gcPBM binding intensity (ln)
1,TTATAGGTTCTATACATATATTTATATATGTACAGA [CACACA_negctrl_site60],6.9
2,TTTTTAAAAATATACACACACAGATATTATAGATAT [CACACA_site6511],7.01
3,CAAGCTATGTATTCTACACACACATACACCCATATA [CACACA_site9133],7.03
4,AGTATACATATATATACACACACACCGATATATATA [CACACA_site8357],7.33
5,TAAAAAAAATAAACGTGTACATAAAAATGAATATGT [XGTACX_site119],7.35
6,TTAATATATTAAATCTTACACACTAAAAAATATGTA [CACACA_site307],6.71
7,GAAAATATTATAGCACCACACACTTATTTTATATAT [CACACA_site2265],7.68
8,AACGTTAAAAAAAAAATATATATAAGGAGAAAGCAC [XGTACX_negctrl_site338],8.15
9,TATGCGTCTTGCCTTGCACACTTTTATGAAAAAAAA [CACACA_site5174],7.34
10,AAAAAAAAAAATATATTATTTTACTTGTTTATTTTT [GTGCAC_negctrl_site435],6.87
11,AATAATCAAATATTAAAAATTGTGCAAAAAAAAAAA [XGTACX_negctrl_site399],7.13
12,TCGTACTTGTATTATGCACACATATAATTAAACATA [CACACA_site9089],8.2
13,TATGAAAAAATATATACACACATAATAAAGGTATAT [CACACA_site3737],6.9
14,TAATATTATATATAAACACACATACCCATGTAAATA [CACACA_site5170],7.09
15,TTTGTTTTAAATATTATACACACGTAAAAGTATAAT [CACACA_site7954],6.98
16,TAATATTTCATTAGGTGTACACTACATAGTAGTAGA [XGTACX_site366],7.05
17,TATAAATATTTTATTGTACACACTTTTTATGAATGA [CACACA_site3136],7.01
18,GTTTGTTTGTTTGTTCGTACATATATAAAATAAAAA [XGTACX_site4731],7.48
19,AGACCTATGATATATACACACATATATTTATTTATA [CACACA_site6630],6.98
20,TATATAACTAAAATAACACACATATATAAAAATATA [CACACA_site7416],6.79
21,ATTATAACACTTATTTCATTTGTATGCCCTTTAAAA [CACACA_negctrl_site955],7.11
22,ATAATCAACATTAGGTGTACAAAATATGTATGTTTT [XGTACX_site6696],7

row,Sequence,gcPBM binding intensity (ln)
1,TATATATTTTTTAATTGTACACTTCAAAAACAAAAA [XGTACX_site5595],7.23
2,GTAGTTATATTAAGGGTGCTTAATTAGATTAAACAA,9.15
3,ATTGAACACATCTATGCATGCACGGAAAAAAGTACA [TGCATGCA_site401],9.54
4,AAAAACTTAATATTGACACACATTTTTAAGAATAAT [CACACA_site4291],6.76
5,AGAATAAATAAATATTGTACATATAAAATATATATA [XGTACX_site896],7.09
6,TTCAAATTTCCACATACACACCTTGTAGATATATAT [CACACA_site7984],7.08
7,TATGCAATATATTATATTCTGTAAATATTATATATT [TGCATGCA_negctrl_site67],6.65
8,TTTTTTAAAATATGGACACACATATATATATCTGTA [CACACA_site5535],6.79
9,TATAAAAAATTAAAATTTTTCTTATTTTTTTTAGAT [TGCATGCA_negctrl_site125],6.63
10,ACCACCAGGAACAAAGCACATTAGGAAAAATAAAAC [XGTACX_negctrl_site228],7.05
11,TTGAATAAATTGGAATAAATATAATAAAATAAGGAA [XGTACX_negctrl_site302],7.09
12,CATACATATATTATTGCACACATATAAAATACCCCC [CACACA_site9292],9.04
13,TACCAATAAATGAAGGTGCGTGCTTGCCTTTGCTAT,9.14
14,TAGGAATTTAATAAATGTACATATACATAATATATA [XGTACX_site3672],6.84
15,TTGTATAGTCTGATATGTACATATATATATATATAA [XGTACX_site4307],7.62
16,TGGATACACAAAAATTAAAAAAATAAACAAACAAAT [GTGCAC_negctrl_site105],7.01
17,TCCTTACATTTTAAAACACACAAAAATTAATTGTTA [CACACA_site2313],6.99
18,AAAAAATAGTGGTATGCATGTCCCTTGTATTTTCTT [TGCATGCA_site587],6.77
19,TACTTTTATATGAATACACACAGGAATATAAATATG [CACACA_site7647],7.2
20,AAAATACCCATTTTAGTACACACTTAAAAAATTATT [CACACA_site8966],6.8
21,TGTGTAATATTCTGTTGTACATAACTCATAAATAAA [XGTACX_site5308],7.07
22,TATATATCCTCTGAATGTACTTGTTTAATAATGTAG [XGTACX_site4332],6.93

# Source: the supplement of paper PMC11417369
